According to PubChem BioAssay AID686979 (National Center for Advancing Translational Sciences (NCATS), 2013):
Among all 420,000 compounds or so, about 50,000 (12%) were called active. Inconclusive results, whose numbers are uncertain, are shown with a selection of clear calls. Calls come from the whole dose curve; as a rule, active = well fitted inhibition curve with a large enough effect; inconclusive = small, poorly fitted or top-dose-only effect; inactive = flat fitted curve, though single readings scatter. No potency is given beside an inconclusive call; the fits are too rough.

Assay: qHTS for Inhibitors of human tyrosyl-DNA phosphodiesterase 1 (TDP1): qHTS in cells in presence of CPT; note: nearly all actives have a fitted effect of over 55% in size
Conditions: chicken DT40 Tdp1-/-;hTDP1 cells + 20 nM CPT, ATP luminescence, 48 h; activity change, negative = growth inhibition: at 46.2 µM (top of the series)
In short: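 Chicken DT40 Tdp1-/- cells stably complemented with human TDP1 were seeded at 400 cells/well in medium containing 20 nM camptothecin, exposed to pin-transferred compounds, and grown at 37 °C for at least 48 hr. Viability was read as ATP luminescence.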
% is set by controls: 0 for no effect and ±100 for the full control effect; potency is the fitted concentration of half-maximal effect; tags give direction and shape of the fitted curve.

| Structure (SMILES) | Potency | activity change, negative = growth inhibition |
| --- | --- | --- |
| COC(=O)CCC(C(=O)CN1C(=O)c2ccccc2C1=O)N1C(=O)c2ccccc2C1=O (stereo not drawn) | inconclusive [inhibitor, single point] |  |
| CC(CCc1ccccc1)NC(=O)CSc1n[nH]c(-c2ccc(F)cc2)n1 (stereo not drawn) | inconclusive [inhibitor, single point] |  |
| COc1ccc(NC(=O)c2cc(C3CCCCN3C(=O)C3CC3)on2)c(C)c1 (stereo not drawn) | inconclusive [inhibitor, partial curve] |  |
| O=C(CSc1nc2ccccc2n1Cc1ccccc1)N/N=C/c1ccccc1C(=O)O | inactive |  |
| CC(C)C[C@H](NC(=O)c1nc[nH]c1C(=O)NCC(=O)OC(C)(C)C)C(=O)OC(C)(C)C | inconclusive [inhibitor, single point] |  |
| O=c1c2ccccc2nc(SCc2nc(-c3ccccc3)no2)n1-c1ccc(F)cc1 | inactive |  |
| COc1ccc(C(=O)Nc2ccc(C(=O)NCCc3ccc(OC)c(OC)c3)cc2)cc1 | inactive |  |
| CNc1nc(-c2ccccc2CN(C)C)nc2ccccc12 | inconclusive [inhibitor, single point] |  |
| CCOc1ccc(CCNC(=O)COC(=O)/C=C/c2ccc(OCC#N)c(OC)c2)cc1OCC | inactive |  |
| O=C(Nc1ccc(Cl)c([N+](=O)[O-])c1)c1ccncc1 | inconclusive [inhibitor, partial curve, poor fit] |  |
| COc1ccc(C(CCN2CCCC(C)C2)c2c(OC)cc(OC)c3c2OC(=O)CC3c2cc(OC)c(OC)c(OC)c2)cc1 (stereo not drawn) | active: 16.4 µM |  |
| COc1ccc(C(=O)NC(C(=O)OCC(=O)Nc2sccc2C(N)=O)C(C)C)cc1 (stereo not drawn) | inconclusive [inhibitor, single point] |  |
| Cc1cccc(Cn2cc(C(=O)Nc3cc(F)ccc3F)ccc2=O)c1 | inconclusive [inhibitor, partial curve] |  |
| CCOc1ccc2oc(C(=O)Nc3cc(C)ccn3)c(C)c2c1 | inconclusive [inhibitor, partial curve, poor fit] |  |
| Nc1[nH]c(C(=O)c2ccc(Br)cc2)c(-c2ccc(Br)cc2)c1C(=O)NCCc1c[nH]c2ccccc12 | inconclusive [inhibitor, single point] |  |
| Fc1ccc(Nc2nc(-c3ccoc3)nc3ccccc23)cc1 | inconclusive [inhibitor, single point] |  |
| O=c1cc(-c2cc3ccccc3oc2=O)c2ccc(O)cc2o1 |  | inactive: 2.15% [at 9.04 µM] |
| CC1=C(C(=O)Nc2ccc(C)cc2C)C(c2ccc(O)cc2)n2nc(SCC(=O)c3ccc(C)cc3)nc2N1 (stereo not drawn) | inactive |  |
